Test results as given in the DeepSol protein solubility set.

Assay: soluble on expression in E. coli; label from the status in PepcDB or PDB records

Row | Sequence | soluble on expression in E. coli
1 | MIVGLGTDIAEIERVEKALARSGENFARRILTDSELEQFHASKQQGRFLAKRFAAKEAASKALGTGIAQGVTFHDFTISHDKLGKPLLILSGQAAELASQLQVENIHLSISDERHYAMATVILERR | not soluble
2 | MKKNAVHFGAGNIGRGFIGKLLADADIAVTFADVNEPLVDQLSHQQEYKVKVVGSECKMETVSHVTAVNSASEALIERIIKTDLVTTAVGPTVLDIIAKTIAKGLSARFAAGNTQPLNIIACENMVRGTTHLKQQVYQFLTTEEQQQADALVGFVDSAVDRIVPPLQAANDDPLEVTVESFSEWIVDEQQFKGEIPQIEGMEKTDNLMAFVERKLFTLNTGHCVTAYLGCLKGHRTIREAIEDPCIHAQVKQAMQESGEVLIRRYGFDRALHSAYIEKILSRFANPYLVDEVDRVGRQPLRKLSANDRLIKPLLGTIEYGLPNGMLLKGIAAALKYRNSSDPQAVELQQSIEKEGVRSTLARYTGLAAESVEAQQIEALYQQMD | not soluble
